According to publication PMC4336329 (PLoS ONE, 2015):
Out of some 310,000 compounds screened, about 2,200 (0.71%) showed an effect of 50% or more. Effects have a minus sign here. Some of the results follow.

Each compound was assayed against human ether-à-go-go-related gene (hERG) potassium channel (human, UniProt Q12809) (assay: primary screen, population patch clamp on CHO cells stably expressing hERG).
Chain of human ether-à-go-go-related gene (hERG) potassium channel (Q12809 whole entry, looked up): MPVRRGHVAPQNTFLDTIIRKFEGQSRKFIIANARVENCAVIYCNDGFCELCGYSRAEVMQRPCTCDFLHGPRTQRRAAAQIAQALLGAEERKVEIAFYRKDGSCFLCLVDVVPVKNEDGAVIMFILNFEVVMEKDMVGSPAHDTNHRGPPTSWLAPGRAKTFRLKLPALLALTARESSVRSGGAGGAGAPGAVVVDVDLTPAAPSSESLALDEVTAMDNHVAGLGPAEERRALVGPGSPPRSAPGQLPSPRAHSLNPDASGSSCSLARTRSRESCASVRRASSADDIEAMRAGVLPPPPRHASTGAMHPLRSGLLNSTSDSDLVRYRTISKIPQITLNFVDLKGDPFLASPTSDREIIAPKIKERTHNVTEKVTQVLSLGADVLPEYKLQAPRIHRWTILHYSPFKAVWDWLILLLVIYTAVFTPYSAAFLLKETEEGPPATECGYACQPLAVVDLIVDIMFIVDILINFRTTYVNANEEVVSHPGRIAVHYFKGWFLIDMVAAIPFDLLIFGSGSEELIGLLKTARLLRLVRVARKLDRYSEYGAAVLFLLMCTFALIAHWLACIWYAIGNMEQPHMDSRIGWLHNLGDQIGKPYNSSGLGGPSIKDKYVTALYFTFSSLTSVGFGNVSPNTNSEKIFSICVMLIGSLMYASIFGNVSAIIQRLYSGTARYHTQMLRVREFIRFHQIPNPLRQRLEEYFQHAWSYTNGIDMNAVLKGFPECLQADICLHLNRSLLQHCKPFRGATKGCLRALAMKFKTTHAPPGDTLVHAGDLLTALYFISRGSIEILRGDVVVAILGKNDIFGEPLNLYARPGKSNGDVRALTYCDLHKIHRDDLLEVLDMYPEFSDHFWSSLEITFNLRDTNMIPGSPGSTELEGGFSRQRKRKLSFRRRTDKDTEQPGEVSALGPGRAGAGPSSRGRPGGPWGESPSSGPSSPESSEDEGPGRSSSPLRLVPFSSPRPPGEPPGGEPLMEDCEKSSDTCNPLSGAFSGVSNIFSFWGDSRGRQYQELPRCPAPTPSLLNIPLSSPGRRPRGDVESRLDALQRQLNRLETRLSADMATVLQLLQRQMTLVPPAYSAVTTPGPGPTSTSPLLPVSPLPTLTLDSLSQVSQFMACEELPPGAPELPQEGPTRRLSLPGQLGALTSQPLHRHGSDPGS

| SMILES | hERG current change (%, negative = inhibition) at 1uM |
| --- | --- |
| c1ccc(Sc2ccccn2)cc1 | 12.3% |
| c1ccc(-c2ccccc2-c2nc(-c3ccncc3)no2)cc1 | 12.8% |
| Cc1ccc(S(=O)(=O)NC(=O)Nc2ccc(N(C)C)cc2)cc1 | 9.53% |
| O=C(NCCc1ccccc1)C(=O)NCC1OCCCN1S(=O)(=O)c1cc(F)ccc1F (stereo not shown) | 6.06% |
| Cn1nc(C(C)(C)C)cc1C(=O)NCc1ccc2c(c1)OCO2 | 11.8% |
| NC(=O)c1ccccc1OC1CCC1 | 11.9% |
| NC(=O)c1cc(Cc2ccccc2)sc1NC(=O)c1ccco1 | 0.586% |
| Nc1nc(-c2ccc(-c3ccccc3)cc2)cs1 | 16.1% |
| COc1ccc(CN2CCc3c([nH]c4ccccc34)C2)cc1Br | -0.401% |
| O=C(CC1CCCC1)NCCS(=O)(=O)N1CCN(c2ccc(F)cc2)CC1 | 5.7% |
| Cc1ccccc1C1c2[nH]c3ccccc3c2CCN1Cc1cccn1-c1ncccn1 (stereo not shown) | -4.04% |
| Nc1ccc(S(=O)(=O)N2CCCC2)cc1 | -2.91% |
| O=C(Nc1ccc2c(c1)OCCO2)c1cc(-c2ccccc2)nc2ccccc12 | 5.52% |
| C/C=C(\C)c1nnc(NC(=O)C(C)C)s1 | 3.13% |
| O=C(/C=C1\SC(=O)N(CC(=O)Nc2ccc(Cl)cc2)C1=O)Nc1ccc(F)cc1 | 5.22% |
| Cc1cc(C)cc(NCc2cc3c(cc2[N+](=O)[O-])OCO3)c1 | -1.39% |
| COCc1cc(=O)[nH]c(SCCS(=O)(=O)c2ccc(C)cc2)n1 | 8.95% |
| CCN(CCNC(=O)Cn1cc2c(n1)CCCC2)c1ccccc1 | 0.546% |
| COc1ccc(C(=O)Nc2cccc3nc(C)ccc23)cc1OC | 13.3% |
| Cc1cc(C)n(CC(=O)NNC(=O)CC(C)c2ccccc2)n1 (stereo not shown) | 5.7% |
| COc1ccc([N+](=O)[O-])cc1NCc1cccc([N+](=O)[O-])c1 | -21% |
| O=C(Cn1ncc2c([nH]c3ccccc32)c1=O)Nc1ccc(F)cc1F | 16.6% |
| Cc1ccccc1N1CCN(CCCN2C(=O)CC(=C(c3ccccc3)c3ccccc3)C2=O)CC1 | 3.79% |

| SMILES | hERG current change (%, negative = inhibition) at 1uM |
| --- | --- |
| CC(C)N(Cc1nc(-c2ccccc2)no1)C(=O)c1ccc(Cl)cc1 | 3.43% |
| O=C1CN2C(=Nc3ccc(Cl)cc3C2c2ccccc2)CN1 (stereo not shown) | 10.9% |
| CC1(C)NC(=O)NC2(C)NC(=O)NC(C)(C)C12 (stereo not shown) | 4.28% |
| COCCN(Cc1cccs1)S(=O)(=O)c1ccc(-c2ccc(=O)[nH]n2)s1 | -18.6% |
| O=C(Nc1ccnn1C1CCN(C(=O)Cc2cccc(Cl)c2)CC1)C1CC1 | 8.98% |
| CC(C)(C)SC(C(=O)N1CCOCC1)c1ccc(Br)cc1 (stereo not shown) | -0.285% |
| Nc1nonc1C(=O)NCCN=Cc1ccccc1O | 14.5% |
| Clc1ccc(-c2ccccc2)cn1 | 9.29% |
| CC(/C=C/C=C/c1ccccc1)=N/NC(=O)CNc1ccccc1C | 4.85% |
| Cc1ccc(Nc2c(-c3ccccn3)nc3cccc(C)n23)cc1 | 4.48% |
| CC1=C(n2nnc([N+](=O)[O-])n2)C(c2cccnc2)C(C#N)=C(N)O1 (stereo not shown) | 5.88% |
| COc1cccc(Nc2nc(CC(C)=O)ns2)c1 | 18.8% |
| CCOC(=O)c1ccc(-c2ccc(C(=O)Nc3cccnc3)o2)cc1 | 15.4% |
| CC(=O)Nc1ccc(NC(=O)c2ccccc2Nc2ccccc2)cc1 | 13.7% |
| Cc1ccc(S(=O)(=O)N(CC(=O)NN=C2CCN(C)CC2)c2ccc(F)cc2)cc1 | 4.57% |
| CCOC(=O)N1CCN(C(=O)Cc2ccsc2)CC1 | 9.83% |
| Cc1cc(Oc2ccc(=O)n(C)n2)nc(SCC(N)=O)n1 | 7.36% |
| CC1C(=O)N(Cc2ccccc2F)c2ccccc2N1C(=O)c1c(F)cccc1F (stereo not shown) | 11.6% |
| COc1cc(NC(=O)c2ccc(COCC(F)(F)F)cc2)cc(OC)c1OC | 10.7% |
| Cc1nn(-c2nnc(C)c(=O)[nH]2)c(C)c1SCC(=O)Nc1ccc(F)cc1 | 10.1% |
| CCc1nnc(NC(=O)Cc2ccc(OC)cc2)s1 | 7.59% |
| CN(C)c1cnn(-c2ccccc2)c(=O)c1Cl | 14.6% |
| CC1CCN(C(=O)CCCOc2ccc(Cl)cc2)CC1 | 9.09% |

| SMILES | hERG current change (%, negative = inhibition) at 1uM |
| --- | --- |
| Cc1nc2nc[nH]n2c(=O)c1CCC(C)C | 6.33% |
| COc1ccccc1NC(=O)CN1C(=O)NC(CC(C)C)C1=O (stereo not shown) | 5.37% |
| c1cnc(N2CCN(c3cnccn3)CC2)nc1 | 6.33% |
| Cc1c(Cl)cccc1N(CC(=O)NC(C)c1ccccc1)S(C)(=O)=O (stereo not shown) | 5.25% |
| C[C@]12C(=O)N(c3ccc(C(F)(F)F)cc3)C(=O)N1[C@@H]1c3ccccc3OC[C@@H]1[C@H]2c1ccccc1 | 2.16% |
| CNC(=O)c1cccc(NC(=O)CCCNC(=O)c2ccc(Cl)cc2)c1 | 10.7% |
| CN1/C(=C\C(=S)NC(=O)c2cccc(Br)c2)C(C)(C)c2ccccc21 | 2.19% |
| Cc1cc(C)c(S(=O)(=O)N(CC(=O)NCc2cccnc2)C2CCCCC2)c(C)c1 | 5.08% |
| COC(=O)c1ccccc1NC(=S)NC(C)=O | 10.3% |
| Cn1c(SCc2ccccn2)nnc1-c1ccncc1 | 3.35% |
| CCN(CC)C(=O)c1ccc2c(c1)nnn2C | 6.32% |
| CCC(c1nnnn1Cc1ccc(F)cc1)N(CCCO)Cc1cc2cc3c(cc2[nH]c1=O)OCO3 (stereo not shown) | -1.03% |
| CC1(C)NC(=O)N(CN2C(=O)NC(C)(C)C2=O)C1=O | 4.65% |
| CCOC(=O)c1cccc(NC(=O)CSc2nnnn2CC)c1 | 1.51% |
| CCN(CC)CCCn1c2c(c(SCC(=O)Nc3ccc(OC(F)(F)F)cc3)nc1=O)CCC2 | -45.7% |
| C=CCn1c(SCC(=O)Nc2nnc(CC)s2)nnc1-c1ccco1 | 13.2% |
| Cc1ccc(CNC(=O)CCc2cn(C)c3ccccc23)cc1 | 12.4% |
| Cc1ccc(Nc2cc(=O)[nH]c(=O)[nH]2)c(C)c1 | 15.1% |
| COCCCN(C(=S)Nc1cc(Cl)cc(Cl)c1)C(C)c1ccncc1 (stereo not shown) | -2.08% |
| Cc1ccc(-n2nc3c(=O)n(CCCC(=O)NCc4ccco4)nc(C)c3c2C)cc1 | 13.2% |
| CC1CC(C)CN(c2ncnc3c2cnn3C)C1 (stereo not shown) | -4.06% |
| O=C(CN(C(=O)CCC(=O)Nc1nccs1)c1ccc(F)c(Cl)c1)NCC1CCCO1 (stereo not shown) | 20.2% |
| CC(=O)NC1C(=O)Nc2c(C)cc(C)cc21 (stereo not shown) | 11.4% |

| SMILES | hERG current change (%, negative = inhibition) at 1uM |
| --- | --- |
| C=CCOc1ccc(/C=C/C(=O)OC(C)C(=O)Nc2ccc(NC(C)=O)cc2)cc1 (stereo not shown) | 10.8% |
| Cc1cccc(Nc2nc(OCC#N)nc(N(C)C)n2)c1 | 15.2% |
| CC1CCCC(C)N1C(=O)Cn1c(=O)sc2ccccc21 (stereo not shown) | 6.95% |
| Cc1c(NS(=O)(=O)c2ccc(Cl)c(C(=O)OC(C)C(=O)NCc3ccco3)c2)c(=O)n(-c2ccccc2)n1C (stereo not shown) | -9.87% |
| O=C(Nc1ccccc1)Nc1ccc(C(=O)N2CCOCC2)cc1 | 23.2% |
| Cc1noc(C)c1COc1ccccc1C(=O)NNC(=O)c1ccccc1 | 0.877% |
| CCn1c(NC(C)=O)nc2ccccc21 | 20.2% |
| CC(Sc1ccsc1[N+](=O)[O-])C(=O)NCc1ccccc1 (stereo not shown) | 18.5% |
| CCOc1ccc(NC(=O)CN2CCN(CC(=O)Nc3cc(OC)cc(OC)c3)CC2)cc1 | -71.3% |
| CC(=O)Nc1ccc(OC(=O)c2cc3cc(Br)cc(Br)c3oc2=O)cc1 | 5.16% |
| COc1ccc(S(=O)(=O)/N=C2/NC(=O)/C(=C\c3cc(OC)c(OC)cc3[N+](=O)[O-])S2)cc1 | 11.2% |
| O=C(Nc1ncccc1O)C1CCN(S(=O)(=O)c2ccc3ccccc3c2)CC1 | 9.83% |
| CCC(=O)Nc1ccc(C(=O)NCCCn2ccnc2)cc1 | 5.01% |
| CCc1ccc(CNC(=O)c2cc3c(C)nc4ccccc4c3o2)cc1 | 13.3% |
| Cc1ccc(NC(=O)CCSCCC(=O)Nc2ccc(C)c(C)c2)cc1C | 9.29% |
| CCN(CCNC(=O)C1CCCN(Cc2nc(-c3ccc(OC)cc3)oc2C)C1)c1ccccc1 (stereo not shown) | 5.86% |
| Cc1cc(N=Cc2cc(Br)ccc2O)no1 | -1.67% |
| CC(=O)c1cccc(NC(=O)NNC(=O)CCC(=O)Nc2ccc(C)c(C)c2)c1 | 9.49% |
| Oc1ccc(O)c(Cc2nc3ccccc3s2)c1 | 7.28% |
| COc1ccc(N(CC(=O)Nc2cc(C)on2)S(=O)(=O)c2cc(C)ccc2C)cc1 | -5.25% |
| CCCCOC(=O)c1ccc(NC(=O)c2cc(Cl)ccc2OC)cc1 | 6.54% |
| CCCn1c(N)c(N(CCOC)C(=O)CCC2CCCCC2)c(=O)[nH]c1=O | 5.13% |
